Measured values from the supplement of paper PMC4723716.
± gives the uncertainty stated by the source. The full ranking holds about 9,900 compounds; the median of “viability index relative to DMSO control” is about 1, and the lowest 2% start at about 0.85. The list shows a part of the results.

System: Plasmodium falciparum NF54 stage V gametocytes
Test: viability index relative to DMSO control (fraction); higher = less gametocyte killing
Settings: 2.5 µM, incubation time: 72 h
Experimental: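 Broad DOS informer set and blood-stage-active DOS compounds screened in duplicate at 2.5 µM against P. falciparum NF54 stage V gametocytes with the serum-free one-step SaLSSA (1536-well): 72 h at 37 °C under low oxygen, then saponin lysis and MitoTracker Red CMXRos staining, with high-content imaging. Viability index = viable-object count divided by the plate mean of DMSO wells (0 = killed, about 1 = inactive).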

[1] = library set: Broad Institute DOS

O=C(O)C[C@@H]1C=C[C@H](NC(=O)Nc2cc(F)ccc2F)[C@H](CO)O1
viability index [1]: 0.985 ± 0.029

CC(C)CC#Cc1ccc([C@@H]2[C@H]3CN(C(=O)c4ccccn4)CC(=O)N3[C@H]2CO)cc1
viability index [1]: 0.991 ± 0.013

CC(C)CC#Cc1ccc([C@H]2[C@H](CO)N3C(=O)CN(C(=O)c4cccc(F)c4)C[C@@H]23)cc1
viability index [1]: 1.05 ± 0.075

O=C(CC1CC1)N1CC(=O)N2[C@H](CO)[C@@H](c3ccc(C#Cc4cccc(F)c4)cc3)[C@H]2C1
viability index [1]: 0.941 ± 0.03

CN(C)CC(=O)N1[C@@H](CO)[C@H](c2ccccc2)C12CN(C(=O)c1ccc(F)cc1)C2
viability index [1]: 1.094 ± 0.0026

COCC(=O)N1C[C@H]2[C@@H](c3ccccc31)[C@H](CO)N2Cc1cc(F)ccc1F
viability index [1]: 0.97 ± 0.028

FC(F)(F)c1ccccc1CN1[C@@H]2CNC[C@H]1[C@H]2c1ccc(-c2ccncc2)cc1
viability index [1]: 1.02 ± 0.021

OC[C@@H]1[C@H](c2ccc(Br)cc2)[C@@H]2CNCCCCN12
viability index [1]: 0.997 ± 0.012

C[C@H]1CN([C@@H](C)CO)C(=O)CCCn2nncc2CO[C@H]1CN(C)S(=O)(=O)c1ccc2c(c1)OCCCO2
viability index [1]: 1.07 ± 0.073

CCC(=O)N1CC[C@H]2[C@H](CO)Nc3ccc(C#Cc4ccccc4F)cc3[C@H]21
viability index [1]: 1.03 ± 0.027

C[C@H]1CN([C@@H](C)CO)C(=O)c2cccc(NS(=O)(=O)c3ccc(F)cc3)c2O[C@H]1CN(C)Cc1ccc(Cl)c(Cl)c1
viability index [1]: 1.07 ± 0.021

COc1ccc2c3c([C@H](CO)N(Cc4ccccc4)C[C@]33CN(C3)C(=O)c3ccccc3F)n(C)c2c1
viability index [1]: 0.965 ± 0.049

C[C@H]1CN([C@@H](C)CO)C(=O)c2cc(-c3ccc(C#N)cc3)cnc2O[C@@H]1CN(C)Cc1cccnc1
viability index [1]: 1.007 ± 0.008

CC(C)C#Cc1ccc([C@@H]2[C@H]3CN(C(=O)Cc4ccccc4)CC(=O)N3[C@H]2CO)cc1
viability index [1]: 0.864 ± 0.047

C[C@@H]1CN([C@H](C)CO)C(=O)c2cc(/C=C/c3ccccc3)cnc2O[C@H]1CN(C)S(=O)(=O)c1ccccc1F
viability index [1]: 1.18 ± 0.067

C[C@@H]1CN([C@H](C)CO)C(=O)CCCn2cc(nn2)CO[C@@H]1CN(C)Cc1ccccc1
viability index [1]: 0.986 ± 0.035

CO[C@@H](CN(C)S(=O)(=O)c1ccc(F)cc1)[C@H](C)CN(Cc1ccccc1Cl)[C@H](C)CO
viability index [1]: 1.05 ± 0.033

COc1cccc(NC(=O)C[C@H]2CC[C@H]3[C@H](COc4ccc(NS(=O)(=O)c5cccc(F)c5)cc4C(=O)N3C)O2)c1
viability index [1]: 1.08 ± 0.045

C[C@@H]1CN([C@H](C)CO)C(=O)c2ccccc2-c2ccccc2CO[C@@H]1CN(C)Cc1cccc(C(=O)O)c1
viability index [1]: 0.958 ± 0.11

O=C(C[C@@H]1C[C@@H]2c3cc(NC(=O)CC4CC4)ccc3O[C@@H]2[C@@H](CO)O1)NCC1CC1
viability index [1]: 1.06 ± 0.033

C[C@@H]1CN([C@H](C)CO)C(=O)c2cc(NC(=O)CCC(F)(F)F)ccc2O[C@@H](C)CCCCO[C@H]1CN(C)C(=O)c1ccncc1
viability index [1]: 1.06 ± 0.044

O=C(C[C@@H]1CC[C@H]2[C@@H](COC[C@@H](O)CN2Cc2ccc(F)cc2)O1)NCCc1ccccc1
viability index [1]: 1 ± 0.082

CC[C@H]1C/C=C\CCNC(=O)CCC(=O)N1
viability index [1]: 1.01 ± 0.077

C/C=C/c1ccc2c(c1)O[C@H](CN(C)C(=O)Nc1ccc(OC)cc1)[C@@H](C)CN([C@H](C)CO)S2(=O)=O
viability index [1]: 1.05 ± 0.042

O=C1N[C@@H](c2ccccc2)COCc2cn(nn2)CC[C@H]1Cc1ccc(C(F)(F)F)cc1
viability index [1]: 0.916 ± 0.072

O=C(c1cccc(F)c1)N1CCCCN2[C@H](C1)[C@H](c1ccc(C#CC3(O)CCCC3)cc1)[C@@H]2CO
viability index [1]: 1.01 ± 0.028

COCc1cn(CC[C@H]2CC[C@@H](NC(=O)Nc3c(C)noc3C)[C@H](CO)O2)nn1
viability index [1]: 1.03 ± 0.051

CO[C@H]1CN(C)C(=O)c2ccc(NC(=O)c3cccc(F)c3)cc2OC[C@@H](C)NC[C@@H]1C
viability index [1]: 1.06 ± 0.047

C[C@@H](NC(=O)C[C@H]1CC[C@@H]2[C@H](COC[C@H](O)CN2C(=O)Nc2cccc(Cl)c2)O1)c1ccccc1
viability index [1]: 1.07 ± 0.012

COc1ccccc1CNC(=O)C[C@H]1C=C[C@@H](NC(=O)CC2CC2)[C@H](CO)O1
viability index [1]: 1.06 ± 0.046

COc1ccccc1S(=O)(=O)N(C)C[C@@H]1Oc2cc(/C=C/c3ccccc3)ccc2S(=O)(=O)N([C@H](C)CO)C[C@H]1C
viability index (library set: Broad Institute Blood Stage): 0.808 ± 0.032

O=C(NCC[C@@H]1CC[C@@H](NS(=O)(=O)Cc2ccccc2)[C@H](CO)O1)C1CCCCC1
viability index [1]: 0.941 ± 0.1

C[C@@H]1CCCCO[C@@H](CN(C)S(=O)(=O)c2cn(C)cn2)[C@@H](C)CN([C@@H](C)CO)C(=O)c2cc(N(C)C)ccc2O1
viability index [1]: 1.04 ± 0.026

C[C@H](NC(=O)C[C@@H]1CC[C@H]2[C@@H](COC[C@H](O)CN2C(=O)Nc2cccc(Cl)c2)O1)c1ccccc1
viability index [1]: 1.1 ± 0.046

CO[C@H]1CC[C@H]2CCN(C)C(=O)CC3(CCCCC3)CN(C)C(=O)c3cccc(C#N)c3OC[C@H]1O2
viability index [1]: 1.03 ± 0.033

CCN1CC(=O)N2[C@@H](CO)[C@@H](c3ccc(Br)cc3)[C@@H]2C1
viability index [1]: 1.04 ± 0.013

CO[C@H]1CC[C@H]2CCOc3c(C#N)cccc3C(=O)N(C)C[C@H](c3ccccc3)CC(=O)N(C)C[C@@H]1O2
viability index [1]: 1.05 ± 0.028

Cc1ccccc1-c1ccc2c(c1)O[C@@H](CN(C)C(=O)Nc1ccc(C(F)(F)F)cc1)[C@H](C)CN([C@H](C)CO)S2(=O)=O
viability index [1]: 1 ± 0.058

C[C@H](CO)N1C[C@H](C)[C@H](CN(C)C(=O)Cc2cccnc2)Oc2cc(C#Cc3ccccc3F)ccc2S1(=O)=O
viability index [1]: 0.891 ± 0.042

CO[C@H](CN(C)Cc1ccc(-c2ccccn2)cc1)[C@@H](C)CN(C(=O)Nc1ccc(F)cc1)[C@@H](C)CO
viability index [1]: 0.996 ± 0.024

Cc1noc(C)c1S(=O)(=O)Nc1ccc2c(c1)C(=O)N([C@@H](C)CO)C[C@H](C)[C@H](CN(C)C(=O)Nc1cccc3ccccc13)OCCCC[C@H](C)O2
viability index [1]: 1.01 ± 0.088

CCCNC(=O)N1[C@H](CO)[C@@H](c2ccc(-c3ccccc3F)cc2)[C@@H]1C#N
viability index [1]: 1.12 ± 0.093

Cc1noc(C)c1S(=O)(=O)N(C)C[C@H]1OCc2cn(nn2)CCCC(=O)N([C@H](C)CO)C[C@@H]1C
viability index [1]: 0.952 ± 0.014

OC[C@H]1[C@H](c2ccc(C#Cc3ccccc3F)cc2)[C@H]2CN(CC3CCOCC3)CCCCN21
viability index [1]: 0.935 ± 0.046

COc1ccc2c3c([C@@H](CO)N(CC4CC4)C[C@]33CCN(CC3)C(=O)NC3CCCC3)n(C)c2c1
viability index [1]: 0.95 ± 0.045

CC(C)NC(=O)N[C@@H]1CC[C@@H](CC(=O)NCCCN(C)C)O[C@H]1CO
viability index [1]: 0.982 ± 0.024

COCC(=O)Nc1ccc2c(c1)[C@H]1C[C@@H](CC(=O)NCc3ccc4c(c3)OCO4)O[C@H](CO)[C@H]1O2
viability index [1]: 1.08 ± 0.038

COc1ccccc1-c1ccccc1[C@H]1[C@@H](CO)N(C(=O)C2CCOCC2)[C@H]1C#N
viability index [1]: 1.15 ± 0.061

Cc1cccc(-c2ccc([C@@H]3[C@H]4CNC[C@@H]3N4C(=O)Nc3ccccc3Cl)cc2)c1
viability index [1]: 1.15 ± 0.034

CCC(=O)N1C[C@@H]2[C@H](c3ccccc31)[C@H](CO)N2Cc1ccc(F)cc1
viability index [1]: 1.0589 ± 0.00023

C[C@H](CO)N1C[C@H](C)[C@H](CN(C)C(=O)c2ccc(N3CCN(C)CC3)cc2)OCc2cn(nn2)CCCC1=O
viability index [1]: 0.9867 ± 0.0086

CO[C@@H]1CN(C)C(=O)c2cc(NC(=O)CN(C)C)ccc2OC[C@@H](C)N(Cc2ccccc2F)C[C@H]1C
viability index [1]: 1.058 ± 0.0065

O=C1N[C@H](c2ccccc2)COCc2cn(nn2)CC[C@H]1Cc1cccc(Cl)c1
viability index [1]: 0.963 ± 0.011

CO[C@H]1CN(C)C(=O)c2cc(NS(=O)(=O)c3cn(C)cn3)ccc2OC[C@H](C)NC[C@H]1C
viability index [1]: 1.07 ± 0.12

C[C@H](CO)N1C[C@H](C)[C@H](CN(C)C(=O)Nc2ccc(F)cc2)Oc2c(cccc2N(C)C)C1=O
viability index [1]: 0.97 ± 0.16

O=C1C[C@@H](c2ccccc2)C(=O)N[C@@H](c2ccccc2)C/C=C\C[C@@H](c2ccccc2)N1
viability index [1]: 1.14 ± 0.041

Cc1noc(C)c1S(=O)(=O)Nc1ccc2c(c1)C(=O)N([C@H](C)CO)C[C@@H](C)[C@@H](CN(C)C(=O)NC1CCCCC1)O2
viability index [1]: 1.08 ± 0.091

CNC[C@H]1Oc2c(NC(=O)Nc3cccc4ccccc34)cccc2C(=O)N([C@H](C)CO)C[C@@H]1C
viability index [1]: 0.953 ± 0.025

O=C(C1CCOCC1)N1CC(=O)N2[C@H](CO)[C@@H](c3ccc(-c4cccnc4)cc3)[C@@H]2C1
viability index [1]: 1.08 ± 0.088

COc1cccc(CN2C[C@]3(CCN(CC3)S(C)(=O)=O)c3c([C@@H]2CO)n(C)c2cc(OC)ccc32)c1
viability index [1]: 0.932 ± 0.14

O=S(=O)(c1ccccc1F)N1CC[C@@H]2[C@@H](CO)Nc3ccc(C4=CCCCC4)cc3[C@@H]21
viability index [1]: 1.06 ± 0.094

COc1ccc2c3c([C@H](CO)N(C[C@]33CCN(C)CC3)S(=O)(=O)c3cn(C)cn3)n(C)c2c1
viability index [1]: 0.9787 ± 0.0052

CCCC(=O)Nc1ccc2c(c1)OC[C@@H](C)N(CC1CCOCC1)C[C@@H](C)[C@@H](OC)CN(C)C2=O
viability index [1]: 1.01 ± 0.031

COCc1cn(CC[C@@H]2CC[C@@H](NC(=O)Nc3c(C)noc3C)[C@@H](CO)O2)nn1
viability index [1]: 1.04 ± 0.059

CC(C)NC(=O)Nc1cccc2c1O[C@H](CN(C)C(=O)Nc1ccccc1)[C@H](C)CN([C@@H](C)CO)C2=O
viability index [1]: 0.692 ± 0.19

COCC(=O)N1CC(=O)N2[C@H](CO)[C@H](c3ccc(-c4ccncc4)cc3)[C@@H]2C1
viability index [1]: 1.08 ± 0.061

CCCN(C)C[C@H]1OCCCC[C@@H](C)Oc2ccc(NC(=O)CCCN(C)C)cc2C(=O)N([C@H](C)CO)C[C@@H]1C
viability index [1]: 1.12 ± 0.18

O=C(C[C@H]1CC[C@H](NC(=O)C2CCOCC2)[C@H](CO)O1)NCC1CCCCC1
viability index [1]: 1.16 ± 0.098

Cc1ccc(NC(=O)Nc2ccc3c(c2)C(=O)N(C)[C@H]2CC[C@H](CC(=O)NCC(F)(F)F)O[C@@H]2CO3)cc1
viability index [1]: 1.16 ± 0.065

CCC(=O)N1[C@@H](CO)[C@@H](c2ccc(C3=CCCC3)cc2)C12CN(C(=O)COC)C2
viability index [1]: 1.0554 ± 0.00028

COc1ccc2c3c([C@@H](CO)N(CC4CCCC4)C[C@]33CN(C3)C(=O)Nc3ccccc3)n(C)c2c1
viability index [1]: 0.91 ± 0.086

O=S(=O)(c1cccc(F)c1)N1CC[C@@H]2[C@H]1c1cc(Br)ccc1N[C@@H]2CO
viability index [1]: 1.196 ± 0.0051
